Data reported in patent publication EP2495257A2 (Abbott Laboratories, dated 2012).

B1: DVD1218SL (anti-IL-12/IL-18 DVD-Ig, 12-18-C, short linker) (bispecific antibody, human IgG1, kappa)
heavy: QVQLVESGGGVVQPGRSLRLSCAASGFTFSSYGMHWVRQAPGKGLEWVAFIRYDGSNKYYADSVKGRFTISRDNSKNTLYLQMNSLRAEDTAVYYCKTHGSHDNWGQGTMVTVSSASTKGPEVQLVQSGTEVKKPGESLKISCKGSGYTVTSYWIGWVRQMPGKGLEWMGFIYPGDSETRYSPTFQGQVTISADKSFNTAFLQWSSLKASDTAMYYCARVGSGWYPYTFDIWGQGTMVTVSS[no letters for human IgG1 constant region]
light: QSVLTQPPSVSGAPGQRVTISCSGSRSNIGSNTVKWYQQLPGTAPKLLIYYNDQRPSGVPDRFSGSKSGTSASLAITGLQAEDEADYYCQSYDRYTHPALLFGTGTKVTVLGQPKAAPEIVMTQSPATLSVSPGERATLSCRASESISSNLAWYQQKPGQAPRLFIYTASTRATDIPARFSGSGSGTEFTLTISSLQSEDFAVYYCQQYNNWPSITFGQGTRLEIKRTVAAPSVFIFPPSDEQLKSGTASVVCLLNNFYPREAKVQWKVDNALQSGNSQESVTEQDSKDSTYSLSSTLTLSKADYEKHKVYACEVTHQGLSSPVTKSFNRGEC
B2: DVD1218LL (anti-IL-12/IL-18 DVD-Ig, 12-18-C, long linker) (bispecific antibody, human IgG1, kappa, lambda)
heavy: QVQLVESGGGVVQPGRSLRLSCAASGFTFSSYGMHWVRQAPGKGLEWVAFIRYDGSNKYYADSVKGRFTISRDNSKNTLYLQMNSLRAEDTAVYYCKTHGSHDNWGQGTMVTVSSASTKGPSVFPLAPEVQLVQSGTEVKKPGESLKISCKGSGYTVTSYWIGWVRQMPGKGLEWMGFIYPGDSETRYSPTFQGQVTISADKSFNTAFLQWSSLKASDTAMYYCARVGSGWYPYTFDIWGQGTMVTVSS[no letters for human IgG1 constant region]
light: QSVLTQPPSVSGAPGQRVTISCSGSRSNIGSNTVKWYQQLPGTAPKLLIYYNDQRPSGVPDRFSGSKSGTSASLAITGLQAEDEADYYCQSYDRYTHPALLFGTGTKVTVLGQPKAAPSVTLFPPEIVMTQSPATLSVSPGERATLSCRASESISSNLAWYQQKPGQAPRLFIYTASTRATDIPARFSGSGSGTEFTLTISSLQSEDFAVYYCQQYNNWPSITFGQGTRLEIKRTVAAPSVFIFPPSDEQLKSGTASVVCLLNNFYPREAKVQWKVDNALQSGNSQESVTEQDSKDSTYSLSSTLTLSKADYEKHKVYACEVTHQGLSSPVTKSFNRGEC

Target: human IL-18 (human, UniProt Q14116 37-193)
Assay: cell-based or functional assay

| Binder | Potency (IC50, M), KG-1 bioassay [M] |
| --- | --- |
| B1 | 1.8e-10 |
| B2 | 1.8e-10 |
